PubChem BioAssay (NCATS)
“And” between values parts separate entries of the source, which are not always exact repeats. Identical values can stand only once. The shares of active, inactive and inconclusive entries below differ from those in the screen. A potency beside an inconclusive call is a rough fit, not a confirmed value. For some of these results: A note “side channel” means that the fit belongs to a control or component signal, not to the main read-out. The source made the active and inactive calls. Unless noted, calls follow the shape of the dose curve; as a rule, active = well fitted activation curve with a large enough effect; inconclusive = small, poorly fitted or top-dose-only effect, or effect the other way; inactive = flat fitted curve, though single readings scatter.

Assay: qHTS Assay for Identification of Small Molecule Agonists for Hypoxia Response Element Signaling Pathway (AID 914; active = well fitted activation curve with a large enough effect in the signal ratio, with a control signal flat, not every such curve was filed as active; inconclusive = small, poorly fitted or top-dose-only effect, or effect the other way, or a change in a side signal; the % refers to the signal ratio; as to activation: top concentration of the series differs between compounds; % of control where 0% means no effect)
Details: ME-180 (cervical carcinoma) HRE-bla reporter, beta-lactamase ratio, CoCl2, 17 h; activation: stronger effect = higher value
How it was run: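 Reporter activity (beta-lactamase, CCF4 460nm/530nm ratio) in HRE-bla ME-180 cells is recorded after 17 h compound exposure with EC50 CoCl2 at 37 degrees Celsius. AC50 values come from titration data.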
Potency is read from the fitted curve at half-maximal effect; tags tell the direction and shape of the fitted curve or compound fluorescence and quenching.

Compound | Potency | activation
Cc1c(C(=O)c2cccc3ccccc23)c2cccc3c2n1[C@H](CN1CCOCC1)CO3 | inconclusive: 25.1 µM [cytotoxic, side channel, partial curve] | –
N#CC(C#N)=Cc1cc(O)c(O)c(O)c1 | inconclusive: 10 µM [inhibitor, partial curve] | –
CCCC(C)(COC(N)=O)COC(=O)NC(C)C (stereo not drawn) | – | inactive: -37.8%
O=[N+]([O-])c1cc([As](=O)(O)O)ccc1O | – | inconclusive: -10.2%
c1ccc(C2CC2)c(OCC2=NCCN2)c1 | – | inactive: 8.99%
CNCC(O)c1ccc(O)cc1 (stereo not drawn) | – | inconclusive: -29.4%
CCC(COC(=O)c1cc(OC)c(OC)c(OC)c1)(c1ccccc1)N(C)C (stereo not drawn) | inconclusive: 1.26 µM [inhibitor, partial curve] | –
CCN(CC)C(=O)N[C@@H]1C=C2c3cccc4[nH]cc(c34)C[C@@H]2N(C)C1 | inconclusive: 3.98 µM [inhibitor, partial curve] | inconclusive: -31.1%
Fc1ccc(C(OCCN2CCN(CCCc3ccccc3)CC2)c2ccc(F)cc2)cc1 | inconclusive: 31.6 µM [cytotoxic, side channel, single point] and inconclusive: 6.31 µM [inhibitor, partial curve] | –
CNC(C)(C)Cc1ccccc1 | – | inconclusive: -32.5%
CC(CCc1ccccc1)NC(C)C(O)c1ccc(O)cc1 (stereo not drawn) | – | inconclusive: -7.58%
Clc1ccc(CSC(Cn2ccnc2)c2ccc(Cl)cc2Cl)cc1 (stereo not drawn) | inconclusive: 10 µM [cytotoxic, side channel, single point] | –
C[C@@]1(CO)[C@H](O)CC[C@@]2(C)[C@H]1CC[C@H]1C[C@@H]3C[C@@]12CC[C@]3(O)CO | inconclusive: 2 µM [inhibitor, partial curve] | –
COc1ccc(Cc2nccc3cc(OC)c(OC)cc23)cc1OC | inconclusive: 10 µM [inhibitor, full curve] and inconclusive: 2.51 µM [inhibitor, full curve] and inconclusive: 6.31 µM [inhibitor, partial curve] | –
Cc1cc2c(C(C)C)c(O)c(O)c(C=O)c2c(O)c1-c1c(C)cc2c(C(C)C)c(O)c(O)c(C=O)c2c1O | inconclusive: 10 µM [cytotoxic, side channel, partial curve] | –
c1ccc(CCCN2CCN(CCOC(c3ccccc3)c3ccccc3)CC2)cc1 | inconclusive: 25.1 µM [inhibitor, partial curve, poor fit] | –
CCC(=O)O[C@H]1CC[C@H]2[C@@H]3CCC4=CC(=O)CC[C@]4(C)[C@H]3CC[C@]12C | – | inconclusive: -29.4%
COc1ccc2c(c[n+](C)c3c4cc5c(cc4ccc23)OCO5)c1OC | inconclusive: 31.6 µM [cytotoxic, side channel, single point] | –
CCC1(CC)C(=O)C=CNC1=O | – | inactive: -12.7%
O=P1(NCCCl)OCCCN1CCCl (stereo not drawn) | – | inactive: -2.35%
O=C(CCCN1CCC(n2c(=O)[nH]c3ccccc32)CC1)c1ccc(F)cc1 | inconclusive: 0.794 µM [inhibitor, partial curve, poor fit] | –
CN(C)[C@@H]1C(=O)C(C(N)=O)=C(O)[C@@]2(O)C(=O)C3=C(O)c4c(O)ccc(Cl)c4[C@@](C)(O)C3C[C@@H]12 (stereo partly drawn) | – | inactive: 4.51%
Cc1ccc(S(=O)(=O)N[C@@H](CCCCN)C(=O)CCl)cc1 | inconclusive: 15.8 µM [inhibitor, partial curve, poor fit] | –
Cc1nc(-c2ccc(-c3ccc(C(=O)N4CCc5cc6c(cc54)C4(CCN(C)CC4)CO6)cc3)c(C)c2)no1 | inconclusive: 31.6 µM [cytotoxic, side channel] | –
O=C(O)c1nn(Cc2ccc(Cl)cc2Cl)c2ccccc12 | inconclusive: 15.8 µM [inhibitor, partial curve] | –
CC[C@@H](CO)NC(=O)[C@@H]1C=C2c3cccc4c3c(cn4C)C[C@H]2N(C)C1 | inconclusive: 1 µM [inhibitor, partial curve] | –
N#CC(C#N)=Cc1ccc(O)c(O)c1 | inconclusive: 10 µM [inhibitor, full curve] | –
O=C(O)CCCc1ccc(N(CCCl)CCCl)cc1 | inconclusive: 15.8 µM [inhibitor, partial curve, poor fit] and inconclusive: 5.01 µM [inhibitor, partial curve] and inconclusive: 10 µM [inhibitor, partial curve] | –
COc1c2c(cc3c1OCO3)CCN(C)C2 | – | inactive: -5.25%

Assay: qHTS Assay for Identification of Small Molecule Agonists for Thrombopoietin (TPO) Signaling Pathway (AID 917)
Details: TPO signaling pathway reporter cells, agonist qHTS; series mostly up to 38.5 µM
How it was run: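 IL-3-dependent murine pro-B Ba/F3 cells, stably transfected with human TPO receptor and GpIIb-promoter luciferase, are incubated 24 hrs at 37 C with test compound and 26 pM TPO; luciferase signal is read after 10 min at room temperature.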

Compound | Potency
Cc1c(C(=O)c2cccc3ccccc23)c2cccc3c2n1[C@H](CN1CCOCC1)CO3 | inconclusive: 12.6 µM [inhibitor, partial curve]
N#CC(C#N)=Cc1cc(O)c(O)c(O)c1 | inconclusive: 20 µM [inhibitor, single point]
c1ccc(C2CC2)c(OCC2=NCCN2)c1 | inconclusive: 25.1 µM [activator, single point]
CNCC(O)c1ccc(O)cc1 (stereo not drawn) | inconclusive: 10 µM [inhibitor, partial curve]
Fc1ccc(C(OCCN2CCN(CCCc3ccccc3)CC2)c2ccc(F)cc2)cc1 | inconclusive: 10 µM [inhibitor, partial curve]
COc1ccc(Cc2nccc3cc(OC)c(OC)cc23)cc1OC | inconclusive: 12.6 µM [inhibitor, partial curve]
c1ccc(CCCN2CCN(CCOC(c3ccccc3)c3ccccc3)CC2)cc1 | inconclusive: 12.6 µM [inhibitor, partial curve]
COc1ccc2c(c[n+](C)c3c4cc5c(cc4ccc23)OCO5)c1OC | inconclusive: 2 µM [inhibitor, full curve]
CC[C@@]1(O)C(=O)OCc2c1cc1n(c2=O)Cc2cc3ccccc3nc2-1 | inconclusive: 0.126 µM [inhibitor, full curve]
Cc1ccc(S(=O)(=O)N[C@@H](CCCCN)C(=O)CCl)cc1 | inactive
Cc1nc(-c2ccc(-c3ccc(C(=O)N4CCc5cc6c(cc54)C4(CCN(C)CC4)CO6)cc3)c(C)c2)no1 | inconclusive: 12.6 µM [inhibitor, partial curve]
N#CC(C#N)=Cc1ccc(O)c(O)c1 | inconclusive: 12.6 µM [inhibitor, partial curve]
O=C(O)CCCc1ccc(N(CCCl)CCCl)cc1 | inconclusive: 10 µM [inhibitor, partial curve]
